Measured values reported in PMC4336329 (PLoS ONE, 2015).
The whole screen tested about 310,000 compounds, of which about 14,000 (4.5%) showed an effect of 50% or more. Effects have a minus sign here. The list shows a part of the results.

These molecules were tested against human ether-à-go-go-related gene (hERG) potassium channel (human, UniProt Q12809) (assay: primary screen, population patch clamp on CHO cells stably expressing hERG).
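Note: peak tail current of the secondary pulse compared with the same well before compound.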

human ether-à-go-go-related gene (hERG) potassium channel, sequence (Q12809 whole entry, looked up): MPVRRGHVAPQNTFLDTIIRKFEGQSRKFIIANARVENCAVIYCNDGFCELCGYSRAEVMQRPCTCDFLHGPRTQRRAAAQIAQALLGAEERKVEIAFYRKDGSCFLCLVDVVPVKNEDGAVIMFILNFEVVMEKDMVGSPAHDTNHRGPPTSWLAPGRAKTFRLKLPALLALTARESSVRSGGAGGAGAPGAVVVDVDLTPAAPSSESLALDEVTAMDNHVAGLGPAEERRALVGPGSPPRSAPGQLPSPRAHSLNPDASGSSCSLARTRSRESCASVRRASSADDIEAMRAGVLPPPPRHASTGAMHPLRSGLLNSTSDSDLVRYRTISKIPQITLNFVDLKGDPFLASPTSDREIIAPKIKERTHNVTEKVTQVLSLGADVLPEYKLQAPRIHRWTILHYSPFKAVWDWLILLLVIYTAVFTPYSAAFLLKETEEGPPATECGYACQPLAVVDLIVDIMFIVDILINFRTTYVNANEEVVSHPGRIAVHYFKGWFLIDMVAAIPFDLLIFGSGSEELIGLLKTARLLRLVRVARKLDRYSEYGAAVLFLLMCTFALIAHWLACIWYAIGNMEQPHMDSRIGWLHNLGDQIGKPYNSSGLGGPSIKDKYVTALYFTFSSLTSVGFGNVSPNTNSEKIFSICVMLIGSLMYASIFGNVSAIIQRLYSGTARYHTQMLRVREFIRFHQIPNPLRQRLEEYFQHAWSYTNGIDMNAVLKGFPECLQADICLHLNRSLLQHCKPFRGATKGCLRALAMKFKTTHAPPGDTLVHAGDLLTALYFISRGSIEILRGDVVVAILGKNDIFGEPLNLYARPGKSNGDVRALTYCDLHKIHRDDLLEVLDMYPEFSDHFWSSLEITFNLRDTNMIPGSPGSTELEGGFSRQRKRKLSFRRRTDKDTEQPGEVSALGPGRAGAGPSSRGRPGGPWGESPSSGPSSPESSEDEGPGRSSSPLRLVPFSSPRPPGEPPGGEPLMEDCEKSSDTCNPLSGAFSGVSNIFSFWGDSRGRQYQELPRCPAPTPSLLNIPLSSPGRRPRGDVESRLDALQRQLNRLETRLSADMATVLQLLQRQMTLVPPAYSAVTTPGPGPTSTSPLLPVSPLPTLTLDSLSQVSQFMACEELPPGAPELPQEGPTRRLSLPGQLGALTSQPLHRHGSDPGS

| SMILES | hERG current change (%, negative = inhibition) at 10uM [%] |
| --- | --- |
| Cc1cccc(C2c3[nH]c4ccccc4c3CCN2C(=O)Cc2nc(-c3ccccc3)n[nH]2)n1 (stereo not shown) | 0.332 |
| Cc1ccccc1SCC(=O)OCC(=O)Nc1ccc(N(C)C)cc1 | 10.4 |
| Nc1nnc(SCC(=O)NNC(=O)c2ccc([N+](=O)[O-])cc2)s1 | 5.18 |
| COc1ccc2nc(Sc3c([N+](=O)[O-])nc(C)n3Cc3ccccc3)[nH]c2c1 | -12.7 |
| O=C(NC12CC3CC(CC(C3)C1)C2)c1cccc([N+](=O)[O-])c1 | -11.6 |
| Cc1ccc(NC(=O)Cn2c(=O)c3cccn3c3ccccc32)cc1 | 8.83 |
| COc1ccc(Cc2nc3ccc(C(=O)NCCn4cccn4)cc3o2)cc1 | -13.7 |
| COc1ccc(CNC(=O)CN(c2ccccc2)S(=O)(=O)c2ccccc2[N+](=O)[O-])cc1 | -25.4 |
| O=C(c1cccnc1)n1nc(NCc2ccccc2)nc1NCc1ccccc1 | -21.4 |
| NC(=O)CCCCC(=O)OCCCc1cccs1 | 1.8 |
| CCCCP(=O)(CCCC)Cc1ccccc1 | 15.3 |
| CC(Cc1ccccc1)NC(=O)/C=C/c1ccc(Cl)cc1 (stereo not shown) | -11.7 |
| COCCC(=O)N1CCC(Oc2ccc(C(=O)N3C[C@@H]4CCC[C@H]3C4)cc2)CC1 | 11.8 |
| CC(/C=C/c1ccccc1)=N/NC(=O)CNC(=O)c1ccc2c(c1)OCO2 | -6.79 |
| O=C(CN1C(=O)C(=O)N(Cc2ccco2)C1=O)c1c[nH]c2ccccc12 | 16.4 |
| O=C(O)CC(NC(=O)CCc1ccccc1)c1ccc(Cl)cc1 (stereo not shown) | 11.7 |
| O=S(=O)(c1ccccc1)C1(S(=O)(=O)c2ccccc2)CCCC1 | -20.6 |
| Cn1c(=O)c2c(nc(CN3CCN(CCO)CC3)n2CCc2ccccc2)n(C)c1=O | 10.3 |
| S=C(Nc1ccc(Br)cc1Cl)Nn1cnnc1 | 49.8 |
| Cc1cc(C)c(C)c(S(=O)(=O)NCC(=O)NCC2CCCCC2)c1C | 8.41 |

| SMILES | hERG current change (%, negative = inhibition) at 10uM [%] |
| --- | --- |
| Cc1ccn2c(NC3CCCCC3)c(-c3cccc(-c4cccc(Cl)c4)c3)nc2c1.O=C(O)C(F)(F)F | 8.7 |
| CC(NCCN(C)C)C(=O)C12CC3CC(CC(C3)C1)C2.Cl (stereo not shown) | 13.6 |
| COc1ccc(S(=O)(=O)NC(N)=NCCc2ccccc2)cc1 | 9.5 |
| Cc1cc(C)n(C(=O)c2sc3cc(F)ccc3c2Cl)n1 | -3.95 |
| O=C(/C=C/c1ccco1)NC(=S)Nc1ccccn1 | -3.42 |
| COc1ccc(-c2c(C)c3ccc(O)cc3oc2=O)cc1 | 25.1 |
| CC(C)C(=O)NNC(=O)CC(=O)Nc1ccccc1C(=O)O | 14.8 |
| CNC(=S)NNC(=O)Cc1ccc(O)cc1 | -3.23 |
| CCN(CC)CCNC(=O)c1cc2c(-c3cccc(OC)c3)nn(C)c2s1 | -31.8 |
| CCCCOc1ccc(C(=O)NCc2ccco2)cc1 | -5.56 |
| N#Cc1nc(COc2ccc(Br)cc2)oc1NCCCn1ccnc1 | -63.2 |
| COCCCN=CC1=C(O)CC(C)(C)CC1=O | -6.15 |
| CC1CCCCC1NC(=O)c1cc2ccccc2o1 (stereo not shown) | -38.9 |
| Cc1cc(NC(=O)CN2C(=O)NC3(CCCCCC3)C2=O)ccc1Br | 8.49 |
| CC#CCCCC(=O)Nc1ccc(C(=O)O)cc1 | 1.36 |
| CCc1ccc(NC(=O)CSc2nnc(-c3ccco3)o2)cc1 | 2.62 |
| Fc1ccc(Br)cc1C1C=C(c2cccnc2)Nc2ncnn21 (stereo not shown) | -34.2 |
| O=C1CC2(CCCCC2)Oc2ccc(OCC(=O)N3CCOCC3)cc21 | 3.3 |
| Nc1c(C(=O)Nc2ccc3c(c2)OCCO3)nnn1Cc1ccccc1Cl | -10.5 |
| COc1ccc(C(CC(=O)O)NC(=O)OC(C)(C)C)cc1 (stereo not shown) | 9.15 |

| SMILES | hERG current change (%, negative = inhibition) at 10uM [%] |
| --- | --- |
| CCC(c1nnnn1Cc1ccc2c(c1)OCO2)N1CCN(CC)CC1.Cl (stereo not shown) | -4.38 |
| CC(OC(=O)c1cccc(Cl)c1)C(=O)NC1CCCCC1C (stereo not shown) | 7.42 |
| CCCOc1cccc(C2C(C(=O)c3cccs3)=C(O)C(=O)N2Cc2cccnc2)c1 (stereo not shown) | -0.761 |
| CCOCCCNC(=O)CN1C(=O)/C(=C/c2ccccc2)Sc2ccccc21 | -0.186 |
| COc1ccc(OC)c(NC(=O)c2ccc3c(c2)OCO3)c1 | 19.7 |
| N#CCCN(C(=O)COC(=O)c1cc(S(=O)(=O)N2CCOCC2)ccc1Cl)c1ccc(F)cc1 | -47.3 |
| CC1(C)CC(=O)C(/C=N/c2ccccn2)=C(O)C1 | 8.94 |
| C/C(=N\Nc1nccnc1Cl)c1ccc(F)cc1 | -4.07 |
| CCc1ccc(C(C)NC(=O)c2ccc(F)cc2)cc1 (stereo not shown) | -4.66 |
| CCc1ccc(C(C(=O)NCc2ccc(F)cc2)N(C(=O)c2csnn2)C2CC2)cc1 (stereo not shown) | -35.1 |
| Cc1cc(C)nc(Nc2ncc(O)n2-c2ccc(C)c(C)c2)n1 | 15.2 |
| CCOC(=O)C1CCN(C(=O)c2cccc(Cl)c2)CC1 | -7.65 |
| COC(=O)c1ccc(C(=O)OC)c(NC(=S)N2CCN(c3cc(Cl)ccc3C)CC2)c1 | -1.97 |
| COc1cccc(CNC(=O)c2cccnc2Sc2ccc(C)cc2C)c1 | -3.27 |
| O=C(COc1ccc(Cl)cc1Br)N1CCN(c2ccccc2)CC1 | 3.78 |
| CCOc1ccc(OCc2ccc(C(=O)Nc3cccnc3)o2)cc1 | -38.6 |
| COc1cccc2[nH]c(C(=O)NCCCN3CCCC3=O)cc12 | -27 |
| CCOC(=O)Cn1c2ccc(C)cc2c2nc(C)sc21 | 1.32 |
